According to article PMC5700166:
The entries are a selection whose mix differs from that of the whole data set. The list includes weakly bound sequences.

The sequences below were run against T1, GST-Ap-NF-kB RHD (UniProt A0A913YAJ5) (assay: protein-binding microarray (PBM)). Conditions: PBM: ~300 nM protein, 6 mM HEPES pH 7.8, 80 mM KCl, 0.5 mM EDTA, 0.5 mM EGTA, 6% glycerol, 35 ng/ul poly-dIdC, 1% milk, 1 h, room temperature; high values mean tight binding; double strand, one strand shown.
T1 sequence: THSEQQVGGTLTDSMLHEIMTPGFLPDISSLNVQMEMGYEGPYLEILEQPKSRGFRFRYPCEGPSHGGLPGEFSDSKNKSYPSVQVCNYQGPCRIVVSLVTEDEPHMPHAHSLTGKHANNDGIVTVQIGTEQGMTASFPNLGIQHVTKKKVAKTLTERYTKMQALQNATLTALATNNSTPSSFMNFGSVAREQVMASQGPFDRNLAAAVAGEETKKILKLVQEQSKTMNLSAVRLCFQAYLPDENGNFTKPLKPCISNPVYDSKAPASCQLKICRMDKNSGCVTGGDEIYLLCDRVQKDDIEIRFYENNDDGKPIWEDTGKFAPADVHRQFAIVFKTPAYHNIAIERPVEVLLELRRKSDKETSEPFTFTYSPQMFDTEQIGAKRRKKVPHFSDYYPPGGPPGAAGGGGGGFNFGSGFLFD

Row | Sequence | binding signal [z-score]
1 | CCGATTAACATCAGGAAATATCCTGATGTTAATCGGGTCTTGATTCGCTTGACGCTGCTG | -0.978
2 | CCGATTAACATCACGAAATTTCCTGATGTTAATCGGGTCTTGATTCGCTTGACGCTGCTG | 0.236
3 | CCGATTAACATCAGGAATTCTCCTGATGTTAATCGGGTCTTGATTCGCTTGACGCTGCTG | -0.453
4 | CCGATTAACATCAGTGTCCCGTTTGATGTTAATCGGGTCTTGATTCGCTTGACGCTGCTG | 0.859
5 | CCGATTAACATCAAAGTGGGAAATGATGTTAATCGGGTCTTGATTCGCTTGACGCTGCTG | 0.944
6 | CCGATTAACATCAATAAAATTCCTGATGTTAATCGGGTCTTGATTCGCTTGACGCTGCTG | 0.224
7 | CCGATTAACATCAGGAGTTGCCCTGATGTTAATCGGGTCTTGATTCGCTTGACGCTGCTG | 0.285
8 | CCGATTAACATCAGGACATCCCATGATGTTAATCGGGTCTTGATTCGCTTGACGCTGCTG | 0.495
9 | CCGATTAACATCAAAATTCCGGATGATGTTAATCGGGTCTTGATTCGCTTGACGCTGCTG | 0.413
10 | CCGATTAACATCAAAATTTCCCCTGATGTTAATCGGGTCTTGATTCGCTTGACGCTGCTG | 10.2
11 | CCGATTAACATCAGGAAATTTACTGATGTTAATCGGGTCTTGATTCGCTTGACGCTGCTG | 0.528
12 | CCGATTAACATCAAGAATTTTCCTGATGTTAATCGGGTCTTGATTCGCTTGACGCTGCTG | 0.109
13 | CCGATTAACATCAAAAATCCCCGTGATGTTAATCGGGTCTTGATTCGCTTGACGCTGCTG | 9.77
14 | CCGATTAACATCAAGGAATGTCCTGATGTTAATCGGGTCTTGATTCGCTTGACGCTGCTG | 0.153
15 | CCGATTAACATCAAGGAATCTCCTGATGTTAATCGGGTCTTGATTCGCTTGACGCTGCTG | -0.0796
16 | CCGATTAACATCAAAAATTCCTATGATGTTAATCGGGTCTTGATTCGCTTGACGCTGCTG | -0.143
17 | CCGATTAACATCAGGAAAATCCATGATGTTAATCGGGTCTTGATTCGCTTGACGCTGCTG | -0.237
18 | CCGATTAACATCAGGGGGTTTTATGATGTTAATCGGGTCTTGATTCGCTTGACGCTGCTG | 9.65
19 | CCGATTAACATCAGGATTTGCCCTGATGTTAATCGGGTCTTGATTCGCTTGACGCTGCTG | 0.945
20 | CCGATTAACATCAGGACAGTCCATGATGTTAATCGGGTCTTGATTCGCTTGACGCTGCTG | 0.0459

Row | Sequence | binding signal [z-score]
21 | CCGATTAACATCAGGAATTTACCTGATGTTAATCGGGTCTTGATTCGCTTGACGCTGCTG | 0.97
22 | CCGATTAACATCAAAAATATTCCTGATGTTAATCGGGTCTTGATTCGCTTGACGCTGCTG | 0.061
23 | CCGATTAACATCAGGTAACTACCTGATGTTAATCGGGTCTTGATTCGCTTGACGCTGCTG | 0.541
24 | CCGATTAACATCAAGGAAAAGCCTGATGTTAATCGGGTCTTGATTCGCTTGACGCTGCTG | -0.0671
25 | CCGATTAACATCAGGAATCTCCATGATGTTAATCGGGTCTTGATTCGCTTGACGCTGCTG | 0.334
26 | CCGATTAACATCAGAGGATTTCCTGATGTTAATCGGGTCTTGATTCGCTTGACGCTGCTG | 0.464
27 | CCGATTAACATCAGCGGAAATCCTGATGTTAATCGGGTCTTGATTCGCTTGACGCTGCTG | 0.232
28 | CCGATTAACATCAGAATTTCCGCTGATGTTAATCGGGTCTTGATTCGCTTGACGCTGCTG | -0.211
29 | CCGATTAACATCAAGGAAAATCCTGATGTTAATCGGGTCTTGATTCGCTTGACGCTGCTG | 0.346
30 | CCGATTAACATCAGAAATTCCGCTGATGTTAATCGGGTCTTGATTCGCTTGACGCTGCTG | 0.11
31 | CCGATTAACATCAGGAAAACTCCTGATGTTAATCGGGTCTTGATTCGCTTGACGCTGCTG | -0.359
32 | CCGATTAACATCAGGAATAGCCCTGATGTTAATCGGGTCTTGATTCGCTTGACGCTGCTG | -0.245
33 | CCGATTAACATCAGAGAATTTCCTGATGTTAATCGGGTCTTGATTCGCTTGACGCTGCTG | 0.15
34 | CCGATTAACATCAAGATCCCTTGTGATGTTAATCGGGTCTTGATTCGCTTGACGCTGCTG | 0.746
35 | CCGATTAACATCAAAAAATCTCCTGATGTTAATCGGGTCTTGATTCGCTTGACGCTGCTG | 0.304
36 | CCGATTAACATCAGGAAAGCCCATGATGTTAATCGGGTCTTGATTCGCTTGACGCTGCTG | 1.24
37 | CCGATTAACATCAGGTTTTTCCATGATGTTAATCGGGTCTTGATTCGCTTGACGCTGCTG | 0.25
38 | CCGATTAACATCAAGGCATTTCCTGATGTTAATCGGGTCTTGATTCGCTTGACGCTGCTG | -0.435
39 | CCGATTAACATCAAATTTCCGGATGATGTTAATCGGGTCTTGATTCGCTTGACGCTGCTG | -0.316
40 | CCGATTAACATCACGGCAAGTCCTGATGTTAATCGGGTCTTGATTCGCTTGACGCTGCTG | -0.283

The sequences below were run against T2, GST-Nv-NF-kB (Cys allele) (UniProt E5G601) (assay: protein-binding microarray (PBM)). Conditions: PBM: ~300 nM protein, 6 mM HEPES pH 7.8, 80 mM KCl, 0.5 mM EDTA, 0.5 mM EGTA, 6% glycerol, 35 ng/ul poly-dIdC, 1% milk, 1 h, room temperature; Ap Aiptasia and Nv Nematostella (sea anemones) / Co Capsaspora / Aq Amphimedon (sponge) / Dm Drosophila / Hu human; RHD is the Rel homology domain; high values mean tight binding; most listed sequences are background and not binding sites; double strand, one strand shown.
T2 sequence: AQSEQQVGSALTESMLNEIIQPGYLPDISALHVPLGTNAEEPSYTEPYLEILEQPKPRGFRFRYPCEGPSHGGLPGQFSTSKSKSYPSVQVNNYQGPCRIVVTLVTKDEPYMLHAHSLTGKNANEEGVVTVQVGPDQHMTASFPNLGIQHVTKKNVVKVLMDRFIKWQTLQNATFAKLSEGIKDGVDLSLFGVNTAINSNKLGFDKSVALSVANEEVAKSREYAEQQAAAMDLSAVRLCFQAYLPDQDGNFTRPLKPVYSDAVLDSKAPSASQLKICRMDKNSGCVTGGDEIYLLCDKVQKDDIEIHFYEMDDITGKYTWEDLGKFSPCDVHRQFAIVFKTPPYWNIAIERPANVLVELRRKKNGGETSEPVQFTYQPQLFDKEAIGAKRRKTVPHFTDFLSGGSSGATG

Row | Sequence | binding signal [z-score]
41 | CCGATTAACATCAGGAAATATCCTGATGTTAATCGGGTCTTGATTCGCTTGACGCTGCTG | 0.347
42 | CCGATTAACATCACGAAATTTCCTGATGTTAATCGGGTCTTGATTCGCTTGACGCTGCTG | 0.541
43 | CCGATTAACATCAGGAATTCTCCTGATGTTAATCGGGTCTTGATTCGCTTGACGCTGCTG | 0.787
44 | CCGATTAACATCAGTGTCCCGTTTGATGTTAATCGGGTCTTGATTCGCTTGACGCTGCTG | 2.18
45 | CCGATTAACATCAAAGTGGGAAATGATGTTAATCGGGTCTTGATTCGCTTGACGCTGCTG | 3.3
46 | CCGATTAACATCAATAAAATTCCTGATGTTAATCGGGTCTTGATTCGCTTGACGCTGCTG | 0.354
47 | CCGATTAACATCAGGAGTTGCCCTGATGTTAATCGGGTCTTGATTCGCTTGACGCTGCTG | 0.152
48 | CCGATTAACATCAGGACATCCCATGATGTTAATCGGGTCTTGATTCGCTTGACGCTGCTG | -0.402
49 | CCGATTAACATCAAAATTCCGGATGATGTTAATCGGGTCTTGATTCGCTTGACGCTGCTG | -0.136
50 | CCGATTAACATCAAAATTTCCCCTGATGTTAATCGGGTCTTGATTCGCTTGACGCTGCTG | 11.6
51 | CCGATTAACATCAGGAAATTTACTGATGTTAATCGGGTCTTGATTCGCTTGACGCTGCTG | -0.141
52 | CCGATTAACATCAAGAATTTTCCTGATGTTAATCGGGTCTTGATTCGCTTGACGCTGCTG | 0.254
53 | CCGATTAACATCAAAAATCCCCGTGATGTTAATCGGGTCTTGATTCGCTTGACGCTGCTG | 10.8
54 | CCGATTAACATCAAGGAATGTCCTGATGTTAATCGGGTCTTGATTCGCTTGACGCTGCTG | 0.663
55 | CCGATTAACATCAAGGAATCTCCTGATGTTAATCGGGTCTTGATTCGCTTGACGCTGCTG | -0.327
56 | CCGATTAACATCAAAAATTCCTATGATGTTAATCGGGTCTTGATTCGCTTGACGCTGCTG | -0.445
57 | CCGATTAACATCAGGAAAATCCATGATGTTAATCGGGTCTTGATTCGCTTGACGCTGCTG | 0.0235
58 | CCGATTAACATCAGGGGGTTTTATGATGTTAATCGGGTCTTGATTCGCTTGACGCTGCTG | 9.57
59 | CCGATTAACATCAGGATTTGCCCTGATGTTAATCGGGTCTTGATTCGCTTGACGCTGCTG | 1.25
60 | CCGATTAACATCAGGACAGTCCATGATGTTAATCGGGTCTTGATTCGCTTGACGCTGCTG | 0.331

Row | Sequence | binding signal [z-score]
61 | CCGATTAACATCAGGAATTTACCTGATGTTAATCGGGTCTTGATTCGCTTGACGCTGCTG | 3.18
62 | CCGATTAACATCAAAAATATTCCTGATGTTAATCGGGTCTTGATTCGCTTGACGCTGCTG | 0.481
63 | CCGATTAACATCAGGTAACTACCTGATGTTAATCGGGTCTTGATTCGCTTGACGCTGCTG | 0.779
64 | CCGATTAACATCAAGGAAAAGCCTGATGTTAATCGGGTCTTGATTCGCTTGACGCTGCTG | 0.176
65 | CCGATTAACATCAGGAATCTCCATGATGTTAATCGGGTCTTGATTCGCTTGACGCTGCTG | 0.3
66 | CCGATTAACATCAGAGGATTTCCTGATGTTAATCGGGTCTTGATTCGCTTGACGCTGCTG | 0.00186
67 | CCGATTAACATCAGCGGAAATCCTGATGTTAATCGGGTCTTGATTCGCTTGACGCTGCTG | 0.294
68 | CCGATTAACATCAGAATTTCCGCTGATGTTAATCGGGTCTTGATTCGCTTGACGCTGCTG | -0.155
69 | CCGATTAACATCAAGGAAAATCCTGATGTTAATCGGGTCTTGATTCGCTTGACGCTGCTG | 0.138
70 | CCGATTAACATCAGAAATTCCGCTGATGTTAATCGGGTCTTGATTCGCTTGACGCTGCTG | 0.373
71 | CCGATTAACATCAGGAAAACTCCTGATGTTAATCGGGTCTTGATTCGCTTGACGCTGCTG | 0.336
72 | CCGATTAACATCAGGAATAGCCCTGATGTTAATCGGGTCTTGATTCGCTTGACGCTGCTG | -0.242
73 | CCGATTAACATCAGAGAATTTCCTGATGTTAATCGGGTCTTGATTCGCTTGACGCTGCTG | -0.33
74 | CCGATTAACATCAAGATCCCTTGTGATGTTAATCGGGTCTTGATTCGCTTGACGCTGCTG | -0.481
75 | CCGATTAACATCAAAAAATCTCCTGATGTTAATCGGGTCTTGATTCGCTTGACGCTGCTG | 0.108
76 | CCGATTAACATCAGGAAAGCCCATGATGTTAATCGGGTCTTGATTCGCTTGACGCTGCTG | 0.737
77 | CCGATTAACATCAGGTTTTTCCATGATGTTAATCGGGTCTTGATTCGCTTGACGCTGCTG | -0.0888
78 | CCGATTAACATCAAGGCATTTCCTGATGTTAATCGGGTCTTGATTCGCTTGACGCTGCTG | -0.79
79 | CCGATTAACATCAAATTTCCGGATGATGTTAATCGGGTCTTGATTCGCTTGACGCTGCTG | 0.228
80 | CCGATTAACATCACGGCAAGTCCTGATGTTAATCGGGTCTTGATTCGCTTGACGCTGCTG | -0.118
